Laboratory results taken from PubChem BioAssay AID463173 (ICCB-Longwood Screening Facility, Harvard Medical School, 2010).
About 1,700 (3.3%) of roughly 52,000 compounds were called active. No stated cut-off is given here; in the data, active means survival mostly below about 52% (no sharp cut-off); inactive means mostly above about 56%. This is one part of the list.

The molecules below were run on Wild type (assay: S. aureus survival, RN4220 and DeltatarO strains – OD600, teichoic acid synthesis inhibitors, primary screen (AID 463173)). Settings: S. aureus RN4220 wild type/DeltatarO growth, OD600, 18 h, stronger effect = lower value, screened at 18.75 µg/mL (by protocol).

Row | SMILES | survival
1 | CCOc1ccc(C2c3c(-c4ccc(C)cc4)n[nH]c3C(=O)N2c2ccc(Cl)cc2)cc1 (centres undefined) | inactive: 80%
2 | CC1CCCN(C(=O)Cn2c(=O)oc3cc(S(=O)(=O)N4CCCCC4)ccc32)C1 (centres undefined) | inactive: 80%
3 | COc1ccc(-n2c(=O)c3sc4ccccc4c3n(CC(=O)Nc3cccc(C)c3)c2=O)cc1 | inactive: 85%
4 | CCc1cc(C#N)c(O)cn1 | inactive: 102%
5 | CCOC(=O)N1CCc2c(sc3c2c(=O)n(CCc2ccccc2)c(=O)n3Cc2cc(C)ccc2C)C1 | inactive: 92%
6 | COCCNC(=O)Cn1cc(S(=O)(=O)Cc2ccccc2Cl)c2ccccc21 | inactive: 135%
7 | Cc1ccc(NC(=O)C(Cc2ccccc2)NS(=O)(=O)c2ccc3c(c2)oc(=O)n3C)c(Cl)c1 (centres undefined) | inactive: 85%
8 | COc1ccccc1NC(=O)c1cc(S(=O)(=O)N(C)C2CCCCC2)ccc1F | inactive: 80%
9 | O=C(/C=C/c1ccco1)NC(=S)Nc1ccccc1O | inactive: 119%
10 | COc1ccccc1NC(=O)C1=C(C)Nc2nc(SCc3ccccc3)nn2C1c1ccccn1 (centres undefined) | inactive: 65%
11 | CCOc1ccccc1NC(=O)c1cn(C2CCCC2)c(=O)c2c1c1ccccc1n2C | inactive: 126%
12 | CN(C)c1nc(Nc2ccccc2)nc(N(C)C)n1 | inactive: 106%
13 | COc1ccc(C(=O)Nc2ccccc2C(=O)OCc2cc(=O)n3c4c(sc3n2)CCCC4)cc1 | inactive: 68%
14 | COc1cc(OC)c(Nc2nc3ccc(C)cc3n3nnnc23)cc1Cl | inactive: 134%
15 | O=C(CCC(=O)N1CC2CCCN2c2ccccc21)NCc1ccccc1Cl (centres undefined) | inactive: 69%
16 | Cc1nc2c(c(C)c1CCC(=O)Nc1cccc(C(F)(F)F)c1)c(=O)n(C)c(=O)n2C | inactive: 78%
17 | Cc1nnc(NC(=O)CSc2nccn2-c2cccc(Cl)c2)s1 | inactive: 73%
18 | CC1CCCN(S(=O)(=O)c2cc3c(cc2Cl)NC(=O)CO3)C1 (centres undefined) | inactive: 82%
19 | O=C(O)CC1NC(=O)N(c2ccccc2)C1=O (centres undefined) | inactive: 106%
20 | COC(=O)c1c(NC(=O)c2cccc(OC)c2)sc2c1CCC(C(C)(C)C)C2 (centres undefined) | inactive: 32%

Row | SMILES | survival
21 | CO/N=C/c1ccc(OC)c(OC)c1 | inactive: 106%
22 | COc1ccccc1CNc1nc2nc(C)c(Cl)c(C)n2n1 | inactive: 116%
23 | CN1C(=O)CC(N2CCN(C/C=C/c3ccccc3)CC2)C1=O (centres undefined) | inactive: 117%
24 | COCCCNC(=O)c1ccc2c(c1)N=C(C)c1c(C)ccc(C)c1S2 | inactive: 85%
25 | O=C(CSc1nc2ccccc2c(=O)[nH]1)c1ccc(O)cc1O | inactive: 105%
26 | Cc1cccc(-c2nc(SCC(=O)Nc3cc(C)on3)c3c(=O)n(C)c(=O)n(C)c3n2)c1 | inactive: 54%
27 | COc1ccc(N2CCN(c3ccc(-c4nc(-c5ccccc5C)no4)cc3[N+](=O)[O-])CC2)cc1 | inactive: 88%
28 | Cc1ccc(NC(=O)N2CCC(N3CCN(Cc4ccccc4)C(=O)C3=O)CC2)cc1Cl | inactive: 71%
29 | Cc1ccc2oc(=O)c3cc(C(=O)N4CCN(c5ccccc5)CC4)sc3c2c1 | inactive: 76%
30 | Cc1cccc(CNC(=O)C2CCCN(S(=O)(=O)c3cn(C)cn3)C2)c1 (centres undefined) | inactive: 81%
31 | COc1ccccc1CNC(=O)CCn1c(=O)c2ccccc2n(CC(=O)Nc2ccc(C)cc2)c1=O | inactive: 131%
32 | Cn1nnnc1SCCCNCc1ccc(-c2ccc(Br)cc2)o1 | inactive: 51%
33 | NNC1=NC2CS(=O)(=O)CC2S1 (centres undefined) | inactive: 101%
34 | CCCCCn1c(=O)[nH]c2cc(C(=O)Nc3cc(OC)cc(OC)c3)ccc2c1=O | inactive: 76%
35 | S=C(NCc1ccco1)NC1CCCCC1 | inactive: 111%
36 | Cc1ccccc1CCNC(=O)c1ccc2c(c1)c(C)c(C)n2C | inactive: 74%
37 | COC(=O)c1cc2oc3ccccc3c2n1Cc1cccc(C)c1 | active: 3%
38 | CN(C)S(=O)(=O)c1ccc2c(c1)N(CC(=O)NCc1ccccc1)C(=O)C1CCCCN21 (centres undefined) | inactive: 60%
39 | O=S(=O)(NCc1ccccc1)c1cccs1 | inactive: 111%
40 | CCC1CN(C(=O)NCc2ccc(C)cc2)c2cc(C)ccc2O1 (centres undefined) | inactive: 89%

Row | SMILES | survival
41 | CCCCCNC(=O)c1c[nH]c2ccc(S(=O)(=O)N3CCC(C)CC3)cc2c1=O | inactive: 89%
42 | Cc1nn(S(=O)(=O)c2ccc(C(C)C)cc2)c(C)c1S(=O)(=O)N1CCCCCC1 | inactive: 56%
43 | Cc1ccc(NC(=O)CSc2nc3ccccc3nc2Cc2ccccc2F)cc1F | inactive: 115%
44 | COc1ccc(C(=O)N(CC(=O)NC2CCCC2)Cc2ccc3c(c2)OCO3)cc1OC | inactive: 105%
45 | O=S1(=O)N=C(NNS(=O)(=O)c2ccccc2)c2ccccc21 | inactive: 105%
46 | COc1ccc(-c2nsc(NC(=O)COc3ccc(C)c(C)c3)n2)cc1 | inactive: 98%
47 | CCc1ccccc1NC(=O)C1(S(=O)(=O)c2ccc(Cl)cc2)CC1 | inactive: 90%
48 | Cc1ccc(C)c(N2CCN(C(=O)c3cc4ccc5cccnc5c4[nH]3)CC2)c1 | inactive: 87%
49 | CCOC(=O)c1c(C)oc2ncnc(Nc3ccc(F)cc3Cl)c12 | inactive: 126%
50 | Cc1cc(C)cc(NC(=O)CN2C(=O)CSc3ccc(S(=O)(=O)N(C)C)cc32)c1 | inactive: 83%
51 | COc1cc(C(=O)NCC(c2ccc(N(C)C)cc2)N2CCc3ccccc32)cc(OC)c1OC (centres undefined) | inactive: 95%
52 | Cc1ccc(-c2nc3n(n2)C(c2ccccc2C)C=C(c2ccc(Cl)cc2)N3)cc1 (centres undefined) | inactive: 76%
53 | COc1ccccc1CNC(=O)CS(=O)(=O)c1cccc2nsnc12 | inactive: 86%
54 | COc1ccc(-c2oc3ncn4nc(-c5cccc(C)c5)nc4c3c2-c2ccc(OC)cc2)cc1 | inactive: 68%
55 | COc1cc(C(=O)Nc2nnc(S(=O)(=O)N(C)c3ccccc3)s2)cc(OC)c1OC | inactive: 62%
56 | Cc1ccc(CN2C(=O)c3ccccc3Sc3ccc(C(=O)NC4CCCCC4)cc32)cc1 | inactive: 73%
57 | O=c1oc(-c2cccc3ncccc23)nn1Cc1ccccc1F | inactive: 107%
58 | COc1ccc(OC)c(NC(=O)CCn2cnnn2)c1 | inactive: 73%
59 | COc1ccc(CCNC(=O)c2cc(-c3ccc(C)cc3)nc3n[nH]c(-c4ccccc4)c23)cc1OC | inactive: 153%
